Laboratory results from the supplement of paper PMC10126150.
Values marked as one replicate rest on one cluster of the flow cell; about a third of the high ones do not repeat.

System: ATP
Assay: switch fluorescence ratio, 500 uM ATP over buffer (Cy3 cluster intensity, sum of 5 cycles each) (fold (ratio)); higher = stronger signal-on switching upon ATP binding; sequences stand for … in TCGTCGGCAGCGTCAGATGTGTATAAGAGACAGTTTTTTTTTTTTTTTTTTTTTTTTT…TC
Details: aptamer strand: ATP DNA aptamer (quencher-CACCTGGGGGAGTATTGCGGAGGAAGG + anchor), 100 nM annealed; ATP concentration: 500 uM; one replicate
Summary of the method: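 Values give the fluorescence ratio for each switch-domain sequence, averaged from per-cluster ratios of summed target-cycle to summed buffer-cycle Cy3 intensity. The Cy3-labelled switching-strand clusters sat on a modified Illumina MiSeq flow-cell, were annealed to 100 nM quencher-labelled ATP aptamer, and were imaged in selection buffer, then after 15 min with 500 uM ATP at 22 °C. Five cycles ran with NaOH stripping and re-annealing between them, and clusters outside 100-1000 RFU were excluded.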
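Note: ATP exposure 15 min at 22 °C before imaging.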

| Sequence | switch fluorescence ratio |
| --- | --- |
| TGGTGCCACG | 0.982 |
| AGATAGGATT | 1.01 |
| CTACGGTAGC | 1.58 |
| ATGAAACAAG | 0.978 |
| TCACTTTGAT | 1.02 |
| TTCGCATATC | 1.74 |
| ATTAGCAGCC | 1.02 |
| CGTTCTCTGG | 0.976 |
| AACAGGGCCC | 1.02 |
| AATAAGCGGG | 0.988 |
| ATCATACTCG | 1.06 |
| GAACAGAGAG | 1.06 |
| GCCATGTGAG | 0.996 |
| ATGTATACTG | 1 |
| GCGAAGTTAC | 1.56 |
| CTAGGTCACG | 1.03 |
| AATCTAGGAG | 1.02 |
| TCTATTCATA | 1.01 |
| CGAGTCTGG | 0.945 |
| ACACGATGTT | 0.988 |
| AGAAATGATT | 0.977 |
| TTATTTCGAC | 0.995 |
| GTACCGGCAA | 1.08 |
| CTTTAAAGGG | 0.977 |
| GGAGCCGTCA | 0.989 |
| AGGTTGGGAT | 0.999 |
| TCGTGCCACT | 0.987 |
| GACGTCCGTT | 0.989 |
| TTGACACTTA | 1.03 |
| GGGGGCCTT | 1.01 |
